A compilation of properties of binary mixtures (doi:10.1021/acs.jced.1c00387)
The densities may have been worked out from excess volumes.

Assay: xn = mol fraction of the nth substance listed
Conditions: 81.5 kPa

In the case of `CC(=O)[O-].CC[n+]1ccn(C)c1` + CN(CCO)CCO, the mass density (293.15 K, x2 = 0) is reported as 1102.8 kg/m3, the mass density (293.15 K, x2 = 0.2) is reported as 1092.2 kg/m3 and the mass density (293.15 K, x2 = 0.6) is reported as 1067.7 kg/m3. It also gave a mass density (293.15 K, x2 = 0.8) of 1054.8 kg/m3, a mass density (303.15 K, x2 = 0) of 1096.6 kg/m3 and a mass density (303.15 K, x2 = 0.2) of 1086.1 kg/m3. It also gave a mass density (303.15 K, x2 = 0.4) of 1074.4 kg/m3, a mass density (303.15 K, x2 = 0.6) of 1061.4 kg/m3 and a mass density (303.15 K, x2 = 0.8) of 1048.1 kg/m3. For the same compound, the mass density (313.15 K, x2 = 0) was 1090.5 kg/m3, the mass density (313.15 K, x2 = 0.2) was 1079.9 kg/m3 and the mass density (313.15 K, x2 = 0.4) was 1068.2 kg/m3. For the same compound, the mass density (313.15 K, x2 = 0.6) was 1055.2 kg/m3, the mass density (313.15 K, x2 = 0.8) was 1041.4 kg/m3 and the mass density (323.15 K, x2 = 0) was 1084.4 kg/m3. It also gave a mass density (323.15 K, x2 = 0.2) of 1073.9 kg/m3, a mass density (323.15 K, x2 = 0.6) of 1048.9 kg/m3 and a mass density (323.15 K, x2 = 0.8) of 1034.8 kg/m3. For the same compound, the mass density (333.15 K, x2 = 0.2) was 1067.9 kg/m3, the mass density (333.15 K, x2 = 0.4) was 1056.1 kg/m3 and the mass density (333.15 K, x2 = 0.6) was 1042.8 kg/m3. For the same compound, the mass density (333.15 K, x2 = 0.8) was 1028.2 kg/m3, the mass density (343.15 K, x2 = 0) was 1072.4 kg/m3 and the mass density (343.15 K, x2 = 0.2) was 1061.9 kg/m3. For the same compound, the mass density (343.15 K, x2 = 0.4) was 1050.1 kg/m3, the mass density (343.15 K, x2 = 0.6) was 1036.6 kg/m3 and the mass density (343.15 K, x2 = 0.8) was 1021.5 kg/m3. The mass density (353.15 K, x2 = 0.2) was 1056 kg/m3, the mass density (353.15 K, x2 = 0.4) was 1044.2 kg/m3 and the mass density (353.15 K, x2 = 0.6) was 1030.5 kg/m3.
`CC(=O)[O-].CC[n+]1ccn(C)c1` + CC(C)(N)CO showed a mass density (293.15 K, x2 = 0) of 1102.8 kg/m3, a mass density (303.15 K, x2 = 0) of 1096.6 kg/m3 and a mass density (313.15 K, x2 = 0) of 1090.5 kg/m3. It also gave a mass density (323.15 K, x2 = 0) of 1084.4 kg/m3, a mass density (333.15 K, x2 = 0) of 1078.4 kg/m3 and a mass density (343.15 K, x2 = 0) of 1072.4 kg/m3. It also gave a mass density (353.15 K, x2 = 0) of 1066.5 kg/m3.
For `CN(CCO)CCO` + CC(=O)[O-].CC[n+]1ccn(C)c1, the mass density (303.15 K, x1 = 1) was 1032.4 kg/m3, the mass density (323.15 K, x1 = 1) was 1017.1 kg/m3 and the mass density (333.15 K, x1 = 1) was 1009.4 kg/m3. The mass density (343.15 K, x1 = 1) was 1001.6 kg/m3 and the mass density (353.15 K, x1 = 1) was 993.7 kg/m3.
